These results are taken from the supplement of paper PMC10986608.

The other results are listed elsewhere or left out. Most values come without repeats; read them as rough.

The assay concerns Candida albicans DPL-15. Description: growth (OD600) after compound treatment (apparently relative to screen median) (relative growth (fraction; screen median 1.02)); DPL-15 is a caspofungin-resistant clinical isolate; higher = more fungal growth (less antifungal activity). To be noted: 25 µM; RPMI 1640; 48 h; 30 °C.
Turning to `COC(=O)C1=C2CCCO[C@H]2[C@@H]2[C@@H](C)[C@H](OC)c3ccccc3[C@H]12`, the growth worked out at 0.964. The figure for `C=C(C)[C@]1(O)C[C@@H](C)[C@]2(O)[C@@H]3CCC4(OCCO4)[C@@]34CC(C)=C[C@@]2(O4)[C@H]1OC(=O)Cc1ccccc1` is 1.12; for `COC(=O)[C@@H]1[C@@H](O)[C@@]2(O)c3c(OC)cc(OC)cc3O[C@@]2(c2ccc(OC)cc2)[C@H]1c1cccc(F)c1` it is 1.45; for `COC(=O)[C@H]1[C@@H](O)[C@@]2(O)c3c(OC)cc(OC)cc3O[C@@]2(c2ccc(OC)cc2)[C@@H]1c1cccc(F)c1` it is 1.12. The value for `COC(=O)[C@H]1[C@@H](O)[C@@]2(O)c3c(OC)cc(OC)cc3O[C@@]2(c2ccc(OC)cc2)[C@@H]1c1ccccc1` was 0.995; that for `CCCCc1nc2c(c3c1C[C@H](C)OC3)CNCC2` was 1.6. The value for `COc1ccc([C@@]23Oc4cc(OC)cc(OC)c4[C@]2(O)C(=O)C[C@H]3c2ccccc2)cc1` was 0.946; that for `CO[C@@]12c3c(C)cc(O)c4c(=O)occ(c34)C(=O)[C@@H]1[C@]13COC(=O)c4c(O)cc(C)c(c41)C(=O)[C@H]2[C@@H]3OC(C)=O` was 1.03. With `Oc1c(Br)cc(Br)cc1-c1cc(Br)cc(Br)c1O`, the growth turned out to be 0.853. The figure for `COc1ccc([C@@]23Oc4cc(OC)cc(OC)c4[C@]2(O)[C@H](O)C[C@H]3c2ccccc2)cc1` is 1.05. The value for `COc1ccc([C@@]23Oc4cc(OC)cc(OC)c4[C@]2(O)c2nc(-c4ccccc4Cl)[nH]c(=O)c2[C@H]3c2ccccc2)cc1` was 1.04; that for `COc1ccc([C@@]23Oc4cc(OC)cc(OC)c4[C@]2(O)c2nc(-c4cccc(C)c4)[nH]c(=O)c2[C@H]3c2ccccc2)cc1` was 1.03. The figure for `CC(=O)C1=C(C)OC2=C(C(=O)CCC2)[C@@]12C(=O)N(C)c1ccccc12` is 1.06; for `CO[C@@H]1[C@H](O)CC[C@]2(O)CN(CCc3c[nH]c4ccccc34)[C@](C)([C@H](O)CC=C(C)C)[C@@H]12` it is 1.07; for `COC(=O)[C@H]1[C@H](c2ccccc2)[C@@]2(c3ccc(OC)cc3)Oc3cc(OC)cc(OC)c3[C@]1(O)[C@H]2O` it is 0.836. In the case of `COC(=O)[C@@]12Oc3ccc(C4=CCNCC4)c(O)c3C(=O)C1=C(N)C[C@H](C)[C@H]2O`, the growth amounted to 1.07. On to `COc1ccc([C@@]23Oc4cc(OC)cc(OC)c4[C@]2(O)c2nc(-c4ccc(Cl)nc4)[nH]c(=O)c2[C@H]3c2ccccc2)cc1`, for which the growth came to 1.17. The value for `COC(=O)[C@@H]1[C@@H](O)[C@@]2(O)c3c(OC)cc(OC)cc3O[C@@]2(c2ccc(OC)cc2)[C@H]1c1ccccc1` was 1.02; that for `COC(=O)C1=C2CCO[C@@H]2[C@H]2[C@@H](C)[C@H](OC)c3ccccc3[C@@H]12` was 1.3. The figure for `COC(=O)[C@@H]1[C@@H](c2ccccc2)[C@]2(c3ccc(Br)cc3)Oc3cc(OC)cc(OC)c3[C@@]1(O)C2(O)O` is 1.01.

With `CCOP(=O)(OCC)O/C(C=C(C)C)=C1/CCCCC1=O`, the growth stood at 1.21. `CC(C)=C/C(OP(=O)(Oc1ccccc1)Oc1ccccc1)=C1\CCCCC1=O`: the growth worked out at 0.967. The figure for `COc1ccc([C@@]23Oc4cc(OC)cc(OC)c4[C@]2(O)C2=C(C(=O)N4CCC[C@H]4N2)[C@H]3c2ccccc2)cc1` is 0.919; for `COC(=O)C1=C(O)c2ccoc2[C@@]2(c3ccccc3)CCC[C@H]1C2` it is 1.05; for `COCC1=N[C@@]2(O)[C@H](C(=O)N(C)OC)[C@@H](c3ccccc3)[C@]3(c4ccc(OC)cc4)Oc4cc(OC)cc(OC)c4[C@]23N1` it is 0.984. With `CCCC[C@]12CCC[C@@H](C1)C(C(=O)OC)=C(O)c1ccoc12`, the growth was determined as 1.

On to `COc1ccc([C@@]23Oc4cc(OC)cc(OC)c4[C@]2(O)[C@H](O)[C@H](C(=O)N(C)OC)[C@H]3c2ccccc2)cc1`, for which the growth turned out to be 0.986. The figure for `COc1cc(F)cc2c1[C@]1(O)[C@H](O)[C@H](/C(N)=N/O)[C@@H](c3ccccc3)[C@]1(c1ccc(Br)cc1)O2` is 1.01; for `COc1ccc([C@@]23Oc4cc(OC)cc(OC)c4[C@]2(O)[C@H](O)[C@H](C(=O)O)[C@H]3c2ccccc2)cc1` it is 1.08.

As for `COc1ccc([C@@]23Oc4cc(OC)cc(OC)c4[C@@]24NC(C)=N[C@@]4(O)[C@H](C(=O)N(C)C)[C@H]3c2ccccc2)cc1`, the growth was found to be 0.954. The figure for `COc1ccc([C@@]23Oc4cc(OC)cc(OC)c4[C@]2(O)c2nc(-c4ccccc4)[nH]c(=O)c2[C@@H]3c2ccccc2)cc1` is 0.908; for `CONC(=O)[C@H]1[C@@H](O)[C@@]2(O)c3c(OC)cc(OC)cc3O[C@@]2(c2ccc(Br)cc2)[C@@H]1c1ccccc1` it is 0.776.
